Results reported in publication PMC6919601, “Identification of Plasmodium dipeptidyl aminopeptidase allosteric inhibitors by high throughput screening” (PLoS ONE, 2019).
Where “and” joins values, the source holds several entries; their conditions need not be identical. Equal values may be shown once. The campaign covered roughly 110,000 compounds. About 230 (0.21%) showed an effect of 50% or more. The list shows a part of the results.

target: DPAP1 (Plasmodium falciparum, UniProt Q8IIJ9); assay: primary screen, percent inhibition; read by cleavage of a fluorogenic dipeptide substrate; higher = more effect of the substance; set-up: species or system P. falciparum D10 trophozoite lysates; single well
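Further: 30 min substrate incubation versus DMSO and 10 µM JCP410 controls.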

Sequence of DPAP1 (Q8IIJ9 whole entry, looked up): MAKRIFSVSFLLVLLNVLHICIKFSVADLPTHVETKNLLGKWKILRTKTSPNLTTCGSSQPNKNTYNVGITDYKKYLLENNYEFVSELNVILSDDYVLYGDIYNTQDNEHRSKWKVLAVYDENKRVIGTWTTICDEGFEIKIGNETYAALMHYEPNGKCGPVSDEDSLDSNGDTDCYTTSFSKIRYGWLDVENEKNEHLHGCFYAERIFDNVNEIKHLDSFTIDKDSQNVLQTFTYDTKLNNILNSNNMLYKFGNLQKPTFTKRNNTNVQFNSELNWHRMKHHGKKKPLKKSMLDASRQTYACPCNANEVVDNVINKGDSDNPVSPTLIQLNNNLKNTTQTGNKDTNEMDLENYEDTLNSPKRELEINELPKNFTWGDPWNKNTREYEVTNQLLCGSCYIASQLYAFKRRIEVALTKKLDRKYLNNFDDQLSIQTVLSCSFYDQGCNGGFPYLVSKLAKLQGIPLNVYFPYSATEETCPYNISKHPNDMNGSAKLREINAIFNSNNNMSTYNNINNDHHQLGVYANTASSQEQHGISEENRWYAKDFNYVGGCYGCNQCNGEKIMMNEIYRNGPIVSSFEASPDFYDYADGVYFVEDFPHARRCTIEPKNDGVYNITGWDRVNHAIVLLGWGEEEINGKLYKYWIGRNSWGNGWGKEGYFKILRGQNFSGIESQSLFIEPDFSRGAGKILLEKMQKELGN

SMILES	% Inhibition @ 10 uM
COc1ccc(-c2c(C#N)c(N)nc(OC)c2C#N)cc1OC	-1.22%
Cn1cccc1Cc1nnc(SCC(N)=O)n1C	3.6%
CC(=O)c1ccc(NCN2C(=O)CCC2=O)cc1	4.88%
COC(=O)C1=C(C)N(Cc2ccc(OC)cc2)C(=O)/C1=C\c1ccco1	-9.18%
COc1ccc(OC)c(C(=O)c2ccccc2)c1	3.61%
O=C(c1ccccc1[N+](=O)[O-])N1CCN(c2ccc([N+](=O)[O-])cc2)CC1	4.57%
c1ccc(CC(NCc2ccncc2)c2ccccc2)cc1 (stereo not shown)	-5.16%
Cc1nc(Nc2nc3ccccc3o2)nc(C)c1C	2.36% and 3.24%
COc1ccc(-n2c(C)cc(/C=C3/NC(=O)N(c4ccccc4)C3=O)c2C)cc1	-7.3%
COc1ccc(C(=O)Nc2ccc(NC(=O)c3ccco3)c(OC)c2)cc1Br	-1.28%
CSc1nc(N)c2c3c(sc2n1)CN(C)CC3	3.32%
Cc1cc(Cl)ccc1OCC(=O)NCCC1=CCCCC1	2.13%
Cc1ccccc1NC1CC(C)Nc2c(C)cccc21 (stereo not shown)	7.09%
O=C(NCc1cccs1)c1cc2c(O)nc3ccccc3c2s1	6.08%
CCOc1ccc(NC(=O)COc2c(C)cccc2C)cc1	-1.26%
O=C1C2(c3ccccc3)CN(CCCO)CC1(c1ccccc1)CN(CCCO)C2	-2.9%
Cc1cccc(-c2nc(CSc3nnc(C)n4c3cc3oc(C)cc34)c(C)o2)c1	22.6%
Cc1nc(NC(=O)C2C3CCC(C3)C2C(=O)O)sc1-c1ccccc1 (stereo not shown)	3.32%
Cc1ccc(C(=O)NC(=O)CSc2nncn2C)cc1	-1.24%
Cc1cc(/C=C2/NC(=O)N(Cc3ccccc3F)C2=O)c(C)n1C(C)C	14.2%
O=C(NCc1ccco1)/C(=C\c1ccco1)NC(=O)c1ccsc1	2.69%
CCOC(=O)C1=C(CN2CCC(C(N)=O)CC2)NC(=O)NC1c1ccc(OC(C)C)cc1 (stereo not shown)	-1.03%
Cc1nn(Cc2c(F)cccc2Cl)c(C)c1NC(=O)c1nn(C)cc1Br	-0.545%
CCOc1ccc(-c2cc(C(=O)OC)[nH]n2)cc1	-5.15%
Cc1cc(NC(=O)C2CC2c2ccccc2)no1 (stereo not shown)	21.1%

SMILES	% Inhibition @ 10 uM
Cc1nn(-c2ccccc2)c(-n2cccc2)c1C(=O)N1CCC(C(=O)NC(C)c2ccccc2)CC1 (stereo not shown)	0.137%
COc1ccc(S(=O)(=O)N2CCN(c3ccccc3)CC2)cc1OC	0.162%
CC[C@H](NC(=O)C(CC(C)(C)C)OC(=O)N1CCOCC1)C(=O)c1nc2ccccc2o1 (stereo partly shown)	-3.48%
COc1ccc(C2=CC(c3ccc(C)cc3)n3ncnc3N2)cc1 (stereo not shown)	6.77%
COc1ccc(/C=C/c2nc(C#N)c(NC3CC3)o2)cc1OC	2.54%
Cc1cc(O)c(C(=O)/C=C/c2cccnc2)c(=O)o1	-1.8%
Cc1ccc(C2CC(C(F)(F)F)n3nc(C(=O)Nc4cccc(C(C)O)c4)cc3N2)cc1 (stereo not shown)	2.65%
CC(C)(O)C#Cc1ccc(C(=O)N2CCN(C(=O)c3ccc(C#CC(C)(C)O)cc3)CC2)cc1	3.04%
CCCC12CN(C(=O)c3ccccc3)CC(C)(CN(C(=O)c3ccccc3)C1)C2=O	2.25%
CCOC(=O)C1=C(C)N=c2s/c(=C/c3ccccc3O)c(=O)n2C1c1ccc2c(c1)OCO2 (stereo not shown)	4.42%
CC1=C(C(=O)OCc2ccccc2)C(c2ccc(Br)cc2)C(C#N)=C(N)O1 (stereo not shown)	-1.48%
COc1ccc(C2NC(=O)NC(C)=C2C(=O)OCC(C)C)cc1Br (stereo not shown)	-6.74%
COc1ccc(-c2cc(C(F)(F)F)c(C#N)c(SCC(N)=O)n2)cc1OC	-1.84%
CCCOc1ccc(CNC(=O)C(CC)n2nc(CC)n3c(cc4oc(C)cc43)c2=O)cc1 (stereo not shown)	3%
O=C(CN1C(=O)S/C(=C\c2ccccc2OCc2cccc(F)c2)C1=O)N1CCOCC1	3.16%
CC(=O)c1nnn(-c2nc(N3CCOCC3)nc(N3CCOCC3)n2)c1C	3.81%
C=C(C)Cn1c(N2CCCCC2)nc2c1c(=O)[nH]c(=O)n2C	3.15%
Cc1ccc(Cl)cc1NC(=O)CSc1nc2ccccc2[nH]1	2.93%
Cc1cccc(NC(=O)C(C)Sc2nc3nc(C)cc(C)n3n2)c1 (stereo not shown)	1.67%
CC1CC(S)=Nc2ccccc2N1Cc1ccccc1 (stereo not shown)	4.84%
Cc1ccc2c(CNCc3ccco3)c(C(=O)O)n(Cc3ccc(F)cc3Cl)c2c1	-1.63%
COCc1cc(C)nc2sc(C(=O)Nc3ccc(Br)c(Cl)c3)c(N)c12	-2.94%
Cc1ccc2c(c1)cc1c(=O)n(CC(=O)NCCCOC(C)C)nc(C)n12	0.0198%
CC(=O)Nc1ccc(C(=O)Nc2ccccc2Br)cc1	2.7%
COc1ccccc1/C=C(\NC(=O)c1ccccc1)C(=O)Nc1cccc(Br)c1	1.41%

SMILES	% Inhibition @ 10 uM
C=CCN(Cc1nc(-c2ccc(OC)cc2)no1)S(=O)(=O)c1ccc(C)cc1	-0.946%
COc1cc(C2C3=C(CCCC3=O)N(C)C3=C2C(=O)CCC3)ccc1OCc1ccc(F)cc1	-1.6%
COc1ccc(-c2c(C(F)(F)F)oc3cc(OC)ccc3c2=O)cc1	3.9%
CCN(CC)CCCNc1nc2ccccc2c2nc(-c3ccncc3)nn12	2.6%
CCCCOc1ccc(C2C(=O)N(C3CCCCC3)CC(=O)N2CC2COc3ccccc3O2)cc1 (stereo not shown)	4.36%
CCN1CCN(c2ncc3c(n2)CC(c2cc(OC)c(OC)c(OC)c2)CC3=O)CC1 (stereo not shown)	-5.2%
Cc1ccc2oc(-c3cccc(NC(=O)c4cccc5ccccc45)c3)nc2c1	1.41%
O=C(CCS(=O)(=O)c1nc(-c2ccc3c(c2)OCO3)cc(C(F)(F)F)n1)Nc1cccnc1	1.91%
Cc1ccc2nc(Cl)c3cc(C(=O)N4CCC(C(N)=O)CC4)sc3c2c1	-0.0115%
O=C(O)Cn1cc(/C=C2/NC(=O)N(Cc3ccccc3F)C2=O)c2ccccc21	4.85%
CC(=O)c1sc(NC(=O)C23CC4CC(CC(C4)C2)C3)nc1C	12.1%
Cc1ccc2oc(C(=O)NCc3ccc(S(N)(=O)=O)cc3)c(C)c2c1	-3.71%
CCC(C)N1CC(C(=O)NCCc2ccc(Cl)cc2)CC1=O (stereo not shown)	-1.21%
Cc1sc(NC(=O)C2CCCCC2)nc1-c1ccccc1	-2.44%
CC(C)CCNC(=O)CN1N=C(c2ccccc2)CCC1=O	-2.99%
CCCOC(=O)C(C)Nc1nnc(O)nc1O (stereo not shown)	1.27%
Cc1cc(O)nc(SCC(=O)N2CCN(C(c3ccccc3)c3ccccc3)CC2)n1	-1.38%
COc1ccc(C2CC(=O)C3=C(CC(C)(C)CC3=O)N2c2ccncc2)cc1OC (stereo not shown)	-1.05%
N#Cc1ccc(OCc2cccc(C(=O)N3N=C(C(F)F)CC3(O)C(F)F)c2)cc1 (stereo not shown)	2.08%
CCc1cc2c(cc3c(=O)n(CC(=O)NCc4cccc(Cl)c4)ncn32)s1	6.16%
O=C(C(c1ccccc1)N1Cc2ccccc2C1=O)N1CCc2ccccc2C1 (stereo not shown)	8.32%
Cc1cccc(OCc2nc3ccccc3n2C)c1	-1.31%
CC(C)c1ccc(OCC(O)CN2C(C)CCCC2C)cc1 (stereo not shown)	-0.67%
O=C(NC1CCN(Cc2ccccc2)CC1)C1c2ccccc2C(=O)N2CCc3ccccc3C12 (stereo not shown)	-2.4%
O=c1c2cnn(-c3ccc(Cl)cc3)c2ncn1Cc1cccnc1	-0.0309%

SMILES	% Inhibition @ 10 uM
COc1ccc(N(CC(=O)Nc2ccc(Cl)cc2C)S(C)(=O)=O)cc1OC	-5.7%
CCOC(=O)c1nnn(-c2nonc2N)c1CSC#N	-0.0735%
C=Cc1ccc(Cn2c(C(=O)O)c(CNCc3ccc(CC)cc3)c3ccc(C)cc32)cc1	4.96%
CCOc1ccc(CC(=O)NCc2cccs2)cc1OCC	-4.72%
NC(=O)CCS(=O)(=O)CCN1CCCC1	-3.92%
O=C(C1=C(O)C(=O)N(CCCN2CCOCC2)C1c1ccccc1)c1cc2ccccc2o1 (stereo not shown)	-3.87%
Cc1ccc(CNC(=O)c2ccc(N3Cc4ccccc4Oc4ncccc43)s2)o1	-3.39%
Cc1c(C(=O)N2CCC(Cc3ccccc3)CC2)sc2nc3n(c(=O)c12)CCCCC3	-3.18%
CCCOc1ccc(CNC(=O)Cn2ncn3nc(-c4cccs4)cc3c2=O)cc1	-2.85%
CCOC(=O)c1cnc2cc(C(F)(F)F)ccc2c1N1CC(C)CC(C)C1 (stereo not shown)	-0.631%
Cc1cc(C)cc(OCCSc2nc(-c3ccco3)nc3cc(=O)[nH]n23)c1	3.33%
O=C(Nc1cc(Cl)ccc1C(=O)O)c1ccc(N2C(=O)c3ccccc3C2=O)cc1	3.79%
COc1ccc(-c2c(C)sc(NC(=O)C3CC=CCC3C(=O)O)c2C#N)cc1 (stereo not shown)	1.43%
COc1ccc(-c2cn3nc(N4CCCC(C(=O)NC(C)C)C4)sc3n2)cc1 (stereo not shown)	-3.32%
CCOc1ccc(C(c2c(O)oc3ccccc3c2=O)c2c(O)oc3ccccc3c2=O)cc1	3.47%
Cc1ccc(C(O)C(C)C(=O)O)cc1 (stereo not shown)	0.00784%
COc1ccc(C(=O)Nc2ccc(C(C)C)cc2)cc1OC	-0.771%
COc1ccc(OC)c(-c2nc3[nH]nc(C)n3n2)c1	-4.93%
CN(Cc1ccccc1)S(=O)(=O)c1cc(Cl)ccc1Cl	-3.04%
Cc1cc(O)c(C(=O)/C=C/c2ccsc2)c(=O)o1	3%
Cc1ccc(C23CC4CC(CC(CNC(=O)c5cc(Cl)cc(Cl)c5)(C4)C2)C3)cc1	-5.41%
CCCC1=C(C(=O)OCC)C(c2ccc(Cl)cc2Cl)C(C#N)=C(N)O1 (stereo not shown)	1.48%
